Out of some 150,000 compounds screened, about 540 (0.36%) showed an effect of 50% or more. This is one part of the list.

One may read the % Inhibition as the change of the read-out against control, counted positive when it falls.

The assay has as its system Plasmodium falciparum. The assay can be described thus: Primary screen in NF54 nanoGlo assay, in single point, at 2uM, 72h; a lower Z score goes with more inhibition. Format: functional, Erythrocyte. The settings on record: timepoint 72 hour.
As for `O=C(c1cn[nH]c1)N1CCO[C@@H](CC(c2ccccc2)c2ccccc2)C1`, the “% Inhibition” value was -13% and the Z score is recorded as 1.99.
The corresponding values for `CC(C)c1nccc(C(=O)N[C@H]2C[C@H]3C(=O)N(C)CC(=O)N3C2)n1` are 15% and -1.85.
The corresponding values for `COc1ccccc1C1(CNS(=O)(=O)c2cnn(C)c2)CCOCC1` are -6% and 1.17.
The corresponding values for `O=C(NCCCN1Cc2ccccc2C1)c1cnc(-c2cccnc2)nc1` are -13% and 2.08.
On to `Cc1ccc(C)c(CN(CCc2c[nH]c3ccccc23)Cc2nc(C(=O)NCc3ccco3)co2)c1`, for which the “% Inhibition” value is 0% and the Z score was 0.
Take `CN(CCCO)CC(F)(F)c1ccc(F)cc1`: the “% Inhibition” value is given as -5% and the Z score is reported as 0.73.
On to `Cc1cccc(NC(=O)Nc2ccc(N3CCN(C(=O)C4c5ccccc5Oc5ccccc54)CC3)cc2)c1`, for which the “% Inhibition” value is recorded as 3% and the Z score was -0.39.
The corresponding values for `O=C(CCC1CCCC1)Nc1nnc([C@H]2CC(=O)N(c3ccc(F)cc3)C2)o1` are -2% and 0.3.
The corresponding values for `COc1ccc(CCNc2nc(-c3ccc(OC)cc3)c3c(N)n(-c4ccc(OC)cc4)nc3n2)cc1` are -13% and 2.28.
The corresponding values for `CC(C)c1nccn1C[C@@H](C#N)CCC#N` are -14% and 2.72.
Consider `Cc1ccc2[nH]c(N3CCC(C(=O)NC4CCCCCCC4)CC3)nc2c1`, for which the “% Inhibition” value was 3% and the Z score was -0.41.
The corresponding values for `CC(C)C(=O)Nc1cnn([C@H]2CCOC2)c1` are 10% and -1.24.
Take `CCc1cc2c3c([nH]c2cc1S(=O)(=O)N(CC)c1ccc(OC)cc1)CCCC3=O`: the “% Inhibition” value is listed as -20% and the Z score was found to be 3.84.
As to `CCN[C@H](c1cccnc1)c1ccc(Cl)s1`, the “% Inhibition” value is on record as 4% and the Z score was -0.81.
The corresponding values for `Cc1cc(C(=O)N2CCC(c3nc4ccccc4o3)CC2)cs1` are -7% and 1.17.
As for `CCOc1ccccc1NC(=O)Cn1ncc(-c2ccc(OC)cc2)nc1=O`, the “% Inhibition” value is recorded as 2% and the Z score is listed as -0.24.
For the molecule `CCCc1nc2cc(CCC(=O)Nc3ccc(Br)cc3F)ccc2[nH]1`, the “% Inhibition” value is on record as -2% and the Z score stood at 0.32.
The corresponding values for `CCc1nc(Cn2ccnc2[C@@H](C)CC)no1` are -15% and 3.04.
Regarding `CCc1ccc(-c2[nH]nc3nc(-c4ccc(OC)cc4)cc(C(=O)NCCc4ccc(OC)c(OC)c4)c23)cc1`, the “% Inhibition” value is recorded as -9% and the Z score is listed as 0.79.
The corresponding values for `Cc1ccc(C)c(CC(=O)N2C[C@H]3CC[C@@H](C2)[C@@H]3N)c1` are -3% and 0.47.
With `O=C(NCc1ccc(F)cc1F)[C@H]1CCCN(c2cn[nH]c(=O)c2)C1`, the “% Inhibition” value was 36% and the Z score is given as -4.08.
As to `Cc1nnc(CCOC(=O)[C@H]2CCCN2C(=O)OC(C)(C)C)o1`, the “% Inhibition” value is listed as 0% and the Z score is -0.02.
Turning to `O=C(c1cncc(-c2cccc3ccnn23)n1)N1CCOCC1`, the “% Inhibition” value is -11% and the Z score worked out at 1.55.
Take `C[C@]1(C#N)CCCN(C(=O)c2n[nH]c(N)c2Cl)C1`: the “% Inhibition” value was found to be 1% and the Z score is -0.14.
The corresponding values for `CC(NC(=O)C1CC1c1ccccc1Br)c1cccnc1` (stereo not given) are -5% and 0.61.
The corresponding values for `Cc1cc(Br)ccc1CN1CCC[C@H](c2nncn2C)C1` are -2% and 0.3.
The corresponding values for `Cn1cc(C(=O)N(Cc2ccco2)C2CCOCC2)nn1` are -8% and 1.27.
For the molecule `C[C@@H](COCC(F)(F)F)Nc1ncnc(N)c1Cl`, the “% Inhibition” value is -5% and the Z score is listed as 1.03.
With `c1ccc(-n2nnnc2N2CC[C@]3(CCOC3)C2)cc1`, the “% Inhibition” value amounted to 1% and the Z score was -0.08.
As for `Cc1csc([C@@H]2CN(c3ncnc(N)c3Cl)CCO2)n1`, the “% Inhibition” value is -6% and the Z score was found to be 1.16.
Consider `CC(C)C[C@H](C)NC(=O)c1nn(-c2ccccn2)c2nccc(-c3cccs3)c12`, for which the “% Inhibition” value is on record as -1% and the Z score was determined as 0.13.
The corresponding values for `Cc1cc(CNC(=O)c2[nH]ccc2C2CC2)n(C)n1` are -5% and 0.62.
Turning to `CC(C)(C)C(=O)NCC[C@H](O)c1ccccc1`, the “% Inhibition” value is reported as -5% and the Z score was found to be 0.92.
The corresponding values for `CCc1[nH]c2c(CNC(=O)c3c(C)cc(C)n(C)c3=O)cc(F)cc2c1C` are -10% and 2.06.
Turning to `O=C(Cn1cc(S(=O)(=O)N2CCOCC2)ccc1=O)Nc1ccccc1Cl`, the “% Inhibition” value turned out to be 3% and the Z score was -0.59.
The corresponding values for `O=c1[nH]c2cc(Br)c(S(=O)(=O)Nc3cccnc3)cc2[nH]1` are 3% and -0.54.
The corresponding values for `O=C1OCCN1CCn1ccnc1C1CC1` are -8% and 1.33.
The corresponding values for `C/N=C(\Nc1cccc(S(=O)(=O)N2CCOCC2)c1)c1ccccc1` are 1% and -0.14.
On to `N#Cc1cccc(NC(=O)CN2C(=O)CN(C3CCCC3)C2=O)c1`, for which the “% Inhibition” value is recorded as -9% and the Z score is on record as 0.85.
The corresponding values for `CC1CCCC(OCc2cccc(NC(=O)CN3CCCNC3=O)c2)C1` (stereo not given) are -2% and 0.26.
Regarding `O=C(NCCc1ccncc1)c1cccc(-c2cnn(CC3CC3)c2)c1`, the “% Inhibition” value is reported as -8% and the Z score came to 1.45.
The corresponding values for `CN1C(=O)c2cc(C(=O)NCCN3CCCC3)nn2C[C@@]1(C)C(=O)NC1CCCCCC1` are 10% and -1.13.
For the molecule `Cc1ccc(NC2(C(=O)N3C[C@H](O)[C@@H](F)C3)CCCCC2)cc1C`, the “% Inhibition” value is on record as -9% and the Z score is given as 1.27.
The corresponding values for `COCCC[C@H]1CCCCN1S(=O)(=O)N(C)C` are -12% and 2.23.
The corresponding values for `C[C@H](NC(=O)CC1(N2Cc3ccccc3C2=O)CCOCC1)c1nc2ccccc2n1C` are -14% and 1.78.
The corresponding values for `O=C(CC1CCCC1)NC1CC(O)C(CO)C1` (stereo not given) are -13% and 2.05.
`COc1ccc(CNC2CC3CCC2C3)cc1NC(C)=O` (stereo not given): the “% Inhibition” value was 4% and the Z score was -0.44.
The corresponding values for `N[C@H]1CC[C@@H](C(=O)Nc2cccc3c(-c4ccccc4)ccnc23)C1` are -3% and 0.32.
The corresponding values for `O=C(Cc1ccccc1)Nc1ccc(N2CCN(C(=O)c3cccs3)CC2)nc1` are -19% and 1.9.
The corresponding values for `CN(C)c1nc(N2CCC[C@H](O)CC2)ncc1F` are -10% and 2.
Regarding `CNS(=O)(=O)[C@H]1CCN(C(=O)CCCc2cc(F)ccc2F)C1`, the “% Inhibition” value amounted to 2% and the Z score is -0.33.
The corresponding values for `COc1cc(-c2ccccc2)ccc1CN1CCC(n2cncn2)CC1` are 16% and -1.79.
The corresponding values for `COCc1nocc1C(=O)NC[C@H]1CCc2nccn2C1` are -4% and 0.8.
The corresponding values for `Cc1cc(C(=O)NC[C@H](Cc2ccccc2)C(=O)O)sc1C` are -11% and 2.17.
As to `O=C(NCc1ccccc1Cl)[C@@H]1Oc2ccccc2NC1=O`, the “% Inhibition” value was 0% and the Z score is reported as -0.02.
The corresponding values for `O=C(Nc1cccc(Cl)c1)C1[C@H]2C=C[C@@]3(O2)C(C(=O)NC2CCCCC2)N(CC2COc4ccccc4O2)C(=O)[C@@H]13` (stereo not given in full) are 2% and -0.32.
As for `Cc1ccccc1OC/C=C/CN1CCOCC1`, the “% Inhibition” value is -7% and the Z score worked out at 0.75.
The corresponding values for `O=C(NCc1nnc[nH]1)c1cccn1C1CCCC1` are -8% and 1.48.
In the case of `CN1CCN(C[C@@H]2OC[C@H](NC(=O)c3ccccc3)[C@H]2O)CC1`, the “% Inhibition” value was -5% and the Z score turned out to be 0.67.
The corresponding values for `O=C(CCCc1nccs1)NCC1CCCCC1O` (stereo not given) are -9% and 1.03.
The corresponding values for `CC1(C)OCC[C@@H]1NCc1noc2c1COCC2` are -14% and 1.5.
The corresponding values for `O=C(NC(Cc1ccccc1)c1ncco1)N[C@H]1CCC[C@@H](C2CC2)C1` (stereo not given in full) are -1% and 0.22.
In the case of `Cc1c(Cl)cccc1Nc1cc(C(C)C)nc2nc(-c3cccnc3)nn12`, the “% Inhibition” value was found to be 5% and the Z score is -0.74.
The corresponding values for `N#Cc1nc(C2CC2)oc1N1CCN(C(=O)c2cc(F)cc(F)c2)CC1` are -10% and 0.94.
The corresponding values for `CC(C)N1CCCN(C2CCN(c3cccc(N4CCCC4=O)c3)CC2)CC1` are -6% and 0.87.
The corresponding values for `CCc1ccccc1NC(=O)CN(C)[C@@H](C)C(=O)Nc1ccc(Cl)cn1` are -12% and 2.19.
Consider `COc1ccc(NC(=O)Nc2ccc(N3CCCN(Cc4ccc(F)cc4F)CC3)nc2)cc1`, for which the “% Inhibition” value was -11% and the Z score was found to be 2.02.
As to `CC1C(c2ccccc2)N(C)CCC1(O)c1ccccc1` (stereo not given), the “% Inhibition” value was -5% and the Z score is recorded as 0.9.
The corresponding values for `CNC(=O)C[C@H]1C(=O)NCCN1Cc1cc(O)c2cc(F)ccc2n1` are -12% and 2.13.
The corresponding values for `CC1=CCCN(C(=O)[C@H]2CCCN(C(=O)c3ccc(F)cc3)C2)C1` are 2% and -0.19.
Regarding `CCC[C@H](C)C(=O)Nc1ccc(S(N)(=O)=O)cc1`, the “% Inhibition” value is on record as -14% and the Z score is 2.7.
The corresponding values for `COc1ccc(C(=O)N/C(=C\c2cn(S(=O)(=O)N(C)C)c3ccccc23)C(=O)N2CCCCC2)cc1OC` are -8% and 1.38.
The corresponding values for `CCc1nc(C)c([C@H](C)N(C)Cc2coc(-c3ccc(C(=O)OC)cc3)n2)s1` are -6% and 1.06.
With `CS(=O)(=O)c1ccc(Cl)c(S(=O)(=O)N2CCC(n3ccnc3)CC2)c1`, the “% Inhibition” value is 1% and the Z score is on record as -0.11.
For `CCC1CN(C(=O)c2csc(COC)n2)CC1N1CCOCC1` (stereo not given), the “% Inhibition” value is reported as -3% and the Z score is listed as 0.47.
Regarding `CCc1noc(CNCCn2cccn2)n1`, the “% Inhibition” value is -6% and the Z score is recorded as 0.79.
In the case of `CC(C)S(=O)(=O)CCCn1cc(C#N)cn1`, the “% Inhibition” value is -1% and the Z score was 0.16.
The corresponding values for `Cc1ncncc1C(=O)N1CCC[C@H](c2noc(C(C)C)n2)C1` are 1% and -0.06.
The corresponding values for `OCCN(CCO)C[C@H]1Cc2ccccc2O[C@@H]1C(F)(F)F` are -11% and 1.39.
The corresponding values for `Cc1cccc(S(=O)(=O)NCc2cccc3c2OCO3)c1F` are -9% and 1.23.
As to `CCS(=O)(=O)CCNc1nc(C)nc2c1Cc1ccccc1OC2`, the “% Inhibition” value was -8% and the Z score is recorded as 1.04.
The corresponding values for `CCc1noc(C)c1C(=O)Nc1sc2c(c1C(N)=O)CCCCC2` are -23% and 2.07.
The corresponding values for `CC(C)(C)OC(=O)N1CCC(C)(C)C1C(=O)NCC1CCCOC1` (stereo not given) are 12% and -1.33.
The corresponding values for `C[C@@H](CNC(=O)C1CCCCC1)NC(=O)C1CCCCC1` are -6% and 1.09.
As to `Cc1cc(C(=O)N(C)[C@@H](C)C(C)(C)C)no1`, the “% Inhibition” value was found to be 0% and the Z score was -0.05.

Values taken from ChEMBL document CHEMBL4888484, “Replenishing the malaria drug discovery pipeline: Screening and hit evaluation of the MMV Hit Generation Library 1 (HGL1) against asexual blood stage Plasmodium falciparum ,using a nano luciferase reporter read-out” (2022).
